From PMC4336329 (PLoS ONE, 2015)
About 2,200 (0.71%) of roughly 310,000 compounds showed an effect of 50% or more. Effects have a minus sign here. Some of the results follow.

Each compound was assayed against human ether-à-go-go-related gene (hERG) potassium channel (human, UniProt Q12809) (assay: primary screen, population patch clamp on CHO cells stably expressing hERG).
human ether-à-go-go-related gene (hERG) potassium channel, sequence (Q12809 whole entry, looked up): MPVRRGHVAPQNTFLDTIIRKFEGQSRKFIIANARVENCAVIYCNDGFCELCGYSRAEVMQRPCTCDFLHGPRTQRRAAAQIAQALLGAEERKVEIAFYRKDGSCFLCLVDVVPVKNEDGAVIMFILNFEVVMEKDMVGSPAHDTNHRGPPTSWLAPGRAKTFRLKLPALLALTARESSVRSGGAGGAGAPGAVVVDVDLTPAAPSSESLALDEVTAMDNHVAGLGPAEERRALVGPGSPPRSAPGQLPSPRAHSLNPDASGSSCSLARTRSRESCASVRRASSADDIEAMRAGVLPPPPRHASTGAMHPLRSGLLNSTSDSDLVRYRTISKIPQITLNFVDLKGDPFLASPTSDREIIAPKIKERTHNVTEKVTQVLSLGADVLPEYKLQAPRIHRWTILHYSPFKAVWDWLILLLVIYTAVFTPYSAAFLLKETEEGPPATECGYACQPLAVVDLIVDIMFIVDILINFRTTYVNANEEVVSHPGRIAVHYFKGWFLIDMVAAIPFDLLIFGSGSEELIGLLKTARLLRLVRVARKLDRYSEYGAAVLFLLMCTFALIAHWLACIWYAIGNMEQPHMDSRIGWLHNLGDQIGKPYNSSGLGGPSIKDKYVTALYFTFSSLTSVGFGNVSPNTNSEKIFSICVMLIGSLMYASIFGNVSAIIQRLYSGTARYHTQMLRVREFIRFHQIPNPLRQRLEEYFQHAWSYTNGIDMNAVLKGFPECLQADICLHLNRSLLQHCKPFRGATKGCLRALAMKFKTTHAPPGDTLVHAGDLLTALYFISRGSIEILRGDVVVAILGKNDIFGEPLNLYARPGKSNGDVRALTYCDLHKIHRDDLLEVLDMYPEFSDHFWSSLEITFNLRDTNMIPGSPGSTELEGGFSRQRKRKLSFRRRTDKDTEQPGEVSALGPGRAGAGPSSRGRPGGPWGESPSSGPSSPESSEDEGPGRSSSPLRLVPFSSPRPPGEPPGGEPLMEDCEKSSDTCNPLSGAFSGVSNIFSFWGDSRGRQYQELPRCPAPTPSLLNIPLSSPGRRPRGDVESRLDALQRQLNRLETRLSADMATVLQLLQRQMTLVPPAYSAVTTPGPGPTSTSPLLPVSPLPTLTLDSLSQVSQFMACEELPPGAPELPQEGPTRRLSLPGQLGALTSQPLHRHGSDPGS

Structure (SMILES)	hERG current change (%, negative = inhibition) at 1uM
COc1ccc(-n2nc(C(=O)NCC(=O)NCCCN3CCOCC3)c3ccccc3c2=O)cc1OC	8.97%
CCOC(=O)c1c(NC(=O)CSc2nnc(C)c(=O)[nH]2)sc2c1CCCC2	-1.49%
CCOc1ccc(CN(C)C(=O)c2cc3ccccc3o2)cc1OC	4.36%
Cc1cccc(CCNC(=O)Cn2ncc3c([nH]c4ccccc43)c2=O)c1	5.51%
O=C(Nc1ccc(Cl)cc1)NC1CCCC1Cc1ccco1 (stereo not drawn)	-0.512%
COc1ccc(COc2cc(-c3cccc(OC)c3)nc3ccc(NC(=O)c4ccc(C)cc4)cc23)cc1	13.4%
CCN(Cc1ccccc1)C(=O)COc1ccccc1	12.6%
Cc1ccc(NC(=O)/C(C#N)=N/Nc2ccc(C(=O)O)cc2)c(C)c1	10.8%
COc1cccc2c(N/N=C/c3ccc(O)c(O)c3)cc(C)nc12	16.8%
COc1ccc(N(Cc2ccccc2)S(=O)(=O)c2cc(C(=O)O)ccc2Cl)cc1	5.98%
O=c1c2ccccc2nc(SCc2ccccc2)n1Cc1ccco1	9.88%
O=C(Nc1ccccn1)c1cccnc1	-1.28%
Cc1cccc(NC(=O)CCC(=O)Nc2nnc(C3CCCCC3)s2)c1	18.5%
Cc1ccc(-n2c(=O)cc(N3CCN(C(=O)c4ccco4)CC3)[nH]c2=O)cc1	6.54%
CCOc1cc(N2CCOCC2)c(OCC)cc1NC(=O)CSc1n[nH]c(N)n1	16.2%
O=C(Nc1nc2cc3c(cc2s1)OCO3)C1=COCCO1	5.36%
NC(=O)c1ccc(C(=O)Nc2ccc([As](=O)(O)O)cc2)cc1	12.2%
O=C1NC[C@@H](Cc2ccc(O)cc2)N(CCc2cccc3ccccc23)C1=O	9.78%
Cc1ccc(C(=O)NC2CCCC2)cc1S(=O)(=O)N1CCCCC1	9.1%

Structure (SMILES)	hERG current change (%, negative = inhibition) at 1uM
O=C(NCC1CCCO1)c1nn2c(C(F)(F)F)cc(-c3ccco3)nc2c1Cl (stereo not drawn)	6.3%
CO/N=C/NC(=O)c1c(OC)ccnc1Oc1ccccc1	9.86%
Cl.O=C(O)C(c1ccccc1)N1CCCC1 (stereo not drawn)	8.24%
CCc1cc2c(COC(=O)CCNS(=O)(=O)c3cccc(C(F)(F)F)c3)cc(=O)oc2cc1O	6.34%
O=C(Nc1ccccc1N1CCN(c2ccccc2)CC1)c1cccc(F)c1	6.69%
CCN(CCCNC(=O)CNC(=O)Cn1cnc2ccccc2c1=O)c1ccccc1	2.69%
CCOC(=O)N1CCN(C(=O)c2cc(OCC)c(OCC)c(OCC)c2)CC1	8.58%
COC(CNc1nc(SC)nc2sc3c(c12)CCN(C)C3)OC	-13.6%
O=C(Nc1ccc(S(=O)(=O)Nc2nccs2)cc1)c1ccc(S(=O)(=O)N2CCOCC2)cc1	20.5%
Cn1c(=O)c([N+](=O)[O-])c(N2CCSCC2)c2ccccc21	22.1%
COCCNC(=O)C1CCC(=O)N1S(=O)(=O)c1ccc(C)cc1 (stereo not drawn)	16.9%
Cn1c(-c2ccsc2)c(-c2cccs2)c2cc(-c3ccc4cc[nH]c4c3)ccc21	18.8%
COc1ccccc1OCc1nc2ccccc2[nH]1	3.99%
CC(C)NC(=O)COC(=O)c1cc(Br)ccc1Cl	11.4%
COCc1cc(C)nc(N/N=C/c2ccc(-c3cc(C(=O)O)ccc3Cl)o2)c1C#N	16.2%
CCc1nnc(NS(=O)(=O)c2ccc(N/C=C/C(=O)c3ccc(C)cc3)cc2)s1	13.7%
O=S(=O)(c1ccc(C2CCCCC2)cc1)N1CCN(c2ncccn2)CC1	5.39%
CCc1ccc(OCCCC(=O)O)c(Br)c1	8.96%
C1CCc2nnc(-c3nnc4n3CCCCC4)n2CC1	0.993%

Structure (SMILES)	hERG current change (%, negative = inhibition) at 1uM
COC(=O)c1ccc2c(c1)C(C)(C)C(/C=C/c1ccc(OC)c(OC)c1OC)=[N+]2C.[I-]	7.11%
CCC1(c2ccccc2)NC(=O)N(CC(=O)NCCN2C(=O)S/C(=C\c3cccnc3)C2=O)C1=O (stereo not drawn)	15.9%
O=C(c1ccccc1Oc1ccccc1)N1CCN(c2ccccc2F)CC1	5.99%
COc1ccc(-n2cnnc2SCC(=O)c2cc(C)n(Cc3cccs3)c2C)cc1	4.51%
O=S(=O)(c1ccccc1)N1CCC(O)(CSc2ccccc2)CC1	8.97%
O=C(Cn1nnc(N2CCCCC2)n1)c1ccc(Cl)c(Cl)c1	9.25%
Nc1nc(N)c2[nH]cnc2n1	-6.13%
Clc1cccc(Oc2cnc3ccccc3n2)c1	8.16%
Cc1nccn1CCCN1C(=O)CNC1=S	12.2%
CCCCOc1ccc(C(=O)NCC(=O)NCC(c2ccc(OC)cc2)N2CCOCC2)cc1 (stereo not drawn)	5.17%
CC(NC(=O)Cc1cccs1)C(c1cccs1)N1CCN(c2ccccc2F)CC1 (stereo not drawn)	-3.48%
Cc1ccc(C(=O)N(c2ccccn2)C(C)c2ccco2)cc1C (stereo not drawn)	-3.44%
O=C(O)COc1cnc2ccccc2n1	11.8%
O=S(=O)(c1ccc(OCC(O)CN2CCCCC2)cc1)N1CCOCC1 (stereo not drawn)	23.3%
O=S(=O)(O)c1nc2ccccc2n1CCOc1ccccc1	11.5%
Cc1ccc(NC(=O)Cn2c(=O)cnc3ccccc32)cc1S(=O)(=O)N1CCCCC1	4.36%
COCCSc1nnc(NC(=O)C(C)(C)C)s1	8.7%
CCCc1cc2c(cc1NC(=O)c1ccco1)OCO2	9.18%
Cc1ccc(C(=O)c2cn[nH]c2-c2ccccc2O)cc1	18.1%
